Test results reported in the supplement of paper PMC11880418.
Where a name gives a salt, the structure may show the parent alone. The list shows a part of the results. The data scatter; read single values as rough.

system: MKN45; experiment: ALDHbr (CSC) cell proportion score relative to DMSO vehicle (ratio to DMSO); breast (SUM159) / gastric (MKN45) / pancreatic (PANC1) / colon cancer lines; ALDHbr cells have high ALDH activity and are rich in cancer stem cells (CSC); higher = more CSC (ALDHbr) cells remaining; settings: 10 µM; 72 h
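Further: High-content imaging of ALDEFLUOR-stained cells with Hoechst-labelled nuclei in 384-well plates, triplicate wells, scored as Z-score against 0.1% DMSO vehicle, negative meaning fewer ALDHbr cells.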

How did the ALDHbr turn out when `CC1=C(/C=C/C(C)=C/C=C/C(C)=C\C(=O)O)C(C)(C)CCC1` [Isotretinoin] was run?
The ALDHbr was 0.925.

For `CC(C)(C)NC[C@H](O)c1ccc(O)c(CO)c1` [Levalbuterol hydrochloride], which ALDHbr is on record?
Its ALDHbr is 1.06.

Which ALDHbr does the source give for `CCC[C@@H]1C[C@@H](C(=O)N[C@@H]([C@H]2O[C@H](SC)[C@H](O)[C@@H](O)[C@H]2O)[C@H](C)Cl)N(C)C1` [Clindamycin hydrochloride] here?
Its ALDHbr is 0.937.

`C[N+]1(C)CCC(=C(c2ccccc2)c2ccccc2)CC1` [Diphemanil methylsulfate] was tested. Which ALDHbr did it give?
The ALDHbr was 1.12.

How did the ALDHbr turn out when `CC(=O)OC(C)C[N+](C)(C)C` (stereo unspecified) [Methacholine chloride] was run?
The ALDHbr was 1.05.

How did the ALDHbr turn out when `C[n+]1ccccc1/C=N/O` [Pralidoxime chloride] was run?
The ALDHbr was 1.14.

`CCC(=O)OCC(=O)[C@@]1(OC(=O)CC)[C@@H](C)C[C@H]2[C@@H]3CCC4=CC(=O)C=C[C@]4(C)[C@@]3(Cl)[C@@H](O)C[C@@]21C` [Beclomethasone dipropionate] was tested. Which ALDHbr did it give?
Its ALDHbr is 0.977.

`CN1CCc2c(c3ccccc3n2Cc2ccccc2)C1` [Mebhydroline 1,5-naphtalenedisulfonate] was tested. Which ALDHbr did it give?
The ALDHbr was 1.24.

How did the ALDHbr turn out when `Oc1ccc(OCc2ccccc2)cc1` [Monobenzone] was run?
Its ALDHbr is 0.111.

Which ALDHbr does the source give for `NS(=O)(=O)c1cc(C2(O)NC(=O)c3ccccc32)ccc1Cl` (stereo unspecified) [Chlorthalidone] here?
The ALDHbr was 0.987.

For `N=C(N)NCc1cccc(I)c1` [Iobenguane sulfate], which ALDHbr is on record?
The ALDHbr was 0.94.

How did the ALDHbr turn out when `CC(=O)/N=c1/sc(S(N)(=O)=O)nn1C` [Methazolamide] was run?
Its ALDHbr is 0.81.

Which ALDHbr does the source give for `C[C@]1(Cn2ccnn2)[C@H](C(=O)O)N2C(=O)C[C@H]2S1(=O)=O` [Tazobactam] here?
Its ALDHbr is 1.01.

For `COc1ccc(C(=O)c2ccccc2O)c(O)c1` [Dioxybenzone], which ALDHbr is on record?
Its ALDHbr is 0.959.

For `Cc1ncc([N+](=O)[O-])n1CC(O)CCl` (stereo unspecified) [Ornidazole], which ALDHbr is on record?
The ALDHbr was 1.11.

How did the ALDHbr turn out when `CCCCNc1ccc(C(=O)OCCOCCOCCOCCOCCOCCOCCOCCOCCOC)cc1` [Benzonatate] was run?
The ALDHbr was 0.717.

For `Clc1ccccc1CN1CCc2sccc2C1` [Ticlopidine hydrochloride], which ALDHbr is on record?
Its ALDHbr is 1.04.

How did the ALDHbr turn out when `CN1CCN(c2c(F)cc3c(=O)c(C(=O)O)cn(CCF)c3c2F)CC1` [Fleroxacin] was run?
The ALDHbr was 1.13.

How did the ALDHbr turn out when `C[C@@H](c1ncncc1F)[C@](O)(Cn1cncn1)c1ccc(F)cc1F` [Voriconazole] was run?
Its ALDHbr is 1.06.

For `CC(=O)O[C@H]1C[C@@H]2CC[C@@H]3[C@H](CC[C@@]4(C)[C@H]3C[C@H]([N+]3(C)CCCCC3)[C@@H]4OC(C)=O)[C@@]2(C)C[C@@H]1N1CCCCC1` [Vecuronium bromide], which ALDHbr is on record?
Its ALDHbr is 1.15.

How did the ALDHbr turn out when `C=CCSCC1Nc2cc(Cl)c(S(N)(=O)=O)cc2S(=O)(=O)N1` (stereo unspecified) [Althiazide] was run?
The ALDHbr was 1.1.

With `C=C1/C(=C\C=C2/CCC[C@]3(C)[C@@H]([C@H](C)/C=C/[C@@H](O)C4CC4)CC[C@@H]23)C[C@@H](O)C[C@@H]1O` [Calcipotriene] as the compound, how does the ALDHbr read?
The ALDHbr was 0.836.

`CN1CCOC(c2ccccc2)c2ccccc2C1` (stereo unspecified) [Nefopam hydrochloride] was tested. Which ALDHbr did it give?
Its ALDHbr is 1.06.

How did the ALDHbr turn out when `Cc1c(N)c(=O)n(-c2ccccc2)n1C` [Ampyrone] was run?
Its ALDHbr is 0.874.

For `CC(C)(C)NC(=O)[C@H]1CC[C@H]2[C@@H]3CC[C@H]4NC(=O)C=C[C@]4(C)[C@H]3CC[C@]12C` [Finasteride], which ALDHbr is on record?
Its ALDHbr is 0.651.

For `Cn1c(NCCN(CCO)CCCc2ccc([N+](=O)[O-])cc2)cc(=O)n(C)c1=O` [Nifekalant], which ALDHbr is on record?
Its ALDHbr is 1.1.
